According to PubChem BioAssay AID686971 (National Center for Advancing Translational Sciences (NCATS), 2013):
Among all 360,000 compounds or so, about 7,500 (2.1%) were called active. Inconclusive results, whose numbers are uncertain, are shown with a selection of clear calls. Calls come from the whole dose curve; as a rule, active = well fitted cell-killing curve with a large enough effect; inconclusive = small, poorly fitted or top-dose-only effect, or effect the other way, or another doubt; inactive = no such curve, though single readings can be large or run the other way. No potency is given beside an inconclusive call; the fits are too rough.
Potency is the fitted concentration of half-maximal effect; tags give direction and shape of the fitted curve.

Assay: qHTS for induction of synthetic lethality in tumor cells producing 2HG: qHTS for the HT-1080-IDH1KD cell line;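 for activity, negative = toxicity: 0% = DMSO wells and -100% = cell-free medium wells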
Conditions: HT-1080 IDH1 knockdown viability, ATP luminescence, 48 h; activity, negative = toxicity: at 46.1 µM (top of the series) unless noted
Summary of the method: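 % activity derives from luminescence (CellTiter-Glo), normalised to DMSO and no-cell wells. HT-1080-IDH1KD cells, 750/well, had 48 h compound exposure at 37 °C.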
With `c1ccc(N=C2SCCCS2)cc1` the “activity, negative = toxicity” value was inactive: -6.97%.
In the case of `Cc1ccccc1S(=O)(=O)Cc1ccc(C(=O)N2CCN(c3cccc(C)c3C)CC2)o1`, the Potency is reported as active: 6.51 µM.
With `O=C(Nc1ccccc1O)c1ccc(NS(=O)(=O)c2cccc3cccnc23)cc1` the Potency was inconclusive [cytotoxic, partial curve].
With `CC(=O)Nc1ccc(NC(=O)CC2Nc3cccc4cccc(c34)NC2=O)cc1` (stereo not drawn) the “activity, negative = toxicity” value was inactive: -4.29%.
In the case of `CC[C@@H](C)[C@@H]1CN([C@@H](CN2CCC[C@H]2CN2C(N)=NC[C@@H]2Cc2ccccc2)C(C)C)C(=N)N1CCCC1CCCC1`, the “activity, negative = toxicity” value is reported as inactive: 0.582%.
With `COc1ccc(-c2csc(NCCc3nc4cc(Cl)c(Cl)cc4n3CCCO)n2)cc1` the Potency was inconclusive [cytotoxic, single point].
With `O=C(NCc1ccccc1)c1cc(C2COCCN2C(=O)c2ccc3c(c2)CCO3)on1` (stereo not drawn) the “activity, negative = toxicity” value was inactive: 7.45%.
For `Cc1n[nH]c(C)c1C(=O)CC1(O)C(=O)N(CCc2ccccc2)c2ccc(Br)cc21` (stereo not drawn), the Potency was inconclusive [cytotoxic, single point].
In the case of `O=C(N[C@H]1C/C=C\C[C@@H](CC(=O)N(CCO)Cc2ccccc2)C(=O)NC[C@H](c2ccccc2)OC1=O)OCC1c2ccccc2-c2ccccc21`, the Potency is reported as inconclusive [cytotoxic, single point].
With `Cc1ccc(C)c(N2CCN(C(=S)Nc3ccc4nc(N5CCN(C)CC5)cc(C)c4c3)CC2)c1` the Potency was inconclusive [cytotoxic, single point].
With `O=C(/C=C/c1ccc(F)cc1)Nc1cccc(S(=O)(=O)Nc2cccc(C(F)(F)F)c2)c1` the Potency was inconclusive [cytotoxic, partial curve].
With `O=c1c2ccccc2nc(SCc2cn3ccsc3n2)n1-c1ccccc1F` the Potency was inconclusive [cytotoxic, partial curve].
With `COC(=O)c1ccccc1NC(=O)C1CCCN(S(=O)(=O)c2ccccc2)C1` (stereo not drawn) the Potency was inconclusive [cytotoxic, single point].
With `O=[N+]([O-])/C=C/c1cn(Cc2ccccc2)c2ccccc12` the Potency was inconclusive [cytotoxic, single point].
In the case of `Cc1ccc(C[n+]2cccc(-c3ccccc3)c2)c(C)c1`, the Potency is reported as inconclusive [cytotoxic, partial curve].
For `Cc1nnc(NC(=O)CSc2nc(C(C)C)nc3sc(C)c(C)c23)s1`, the “activity, negative = toxicity” value was inactive: -7.78%.
For `N#Cc1c(NC(=O)c2ccc(Cn3cc(Br)cn3)o2)sc2c1CCCCCC2`, the Potency was inconclusive [cytotoxic, single point].
For `COc1cc(CN(C)CC2CCCN(CCc3ccc(F)cc3)C2)c(Cl)cc1O` (stereo not drawn), the “activity, negative = toxicity” value was inactive: -8.5%.
